Results on 20 molecules are retold here after paper PMC9911399, “Two distinct binding modes provide the RNA-binding protein RbFox with extraordinary sequence specificity”.

First the molecules themselves.
T1: RBFOX1 RRM (Homo sapiens, UniProt Q9NWB1 109-208)
T1 sequence: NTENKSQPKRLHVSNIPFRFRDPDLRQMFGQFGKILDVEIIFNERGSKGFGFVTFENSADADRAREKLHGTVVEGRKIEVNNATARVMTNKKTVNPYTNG

B1: CUGAACA (DNA:RNA)
RNA: GGGAGACCGGAAUUCAGAUUGUCCCUGAACAUUAAAUCCCGUCGUAGCCACCA
DNA 1: CAATCTGAATTCCGGTCTCCC
DNA 2: TGGTGGCTACGACGGGATT
B2: CGUCCAC (DNA:RNA)
RNA: B1 RNA with U26G, G27U, A28C, A29C, C30A, A31C
DNA 1: CAATCTGAATTCCGGTCTCCC
DNA 2: TGGTGGCTACGACGGGATT
B3: GGGAGAA (DNA:RNA)
RNA: B1 RNA with C25G, U26G, A29G, C30A
DNA 1: CAATCTGAATTCCGGTCTCCC
DNA 2: TGGTGGCTACGACGGGATT
B4: CAUGAAA (DNA:RNA)
RNA: B1 RNA with U26A, G27U, A28G, C30A
DNA 1: CAATCTGAATTCCGGTCTCCC
DNA 2: TGGTGGCTACGACGGGATT
B5: CUACUUG (DNA:RNA)
RNA: B1 RNA with G27A, A28C, A29U, C30U, A31G
DNA 1: CAATCTGAATTCCGGTCTCCC
DNA 2: TGGTGGCTACGACGGGATT
B6: UGAAGGG (DNA:RNA)
RNA: B1 RNA with C25U, U26G, G27A, A29G, C30G, A31G
DNA 1: CAATCTGAATTCCGGTCTCCC
DNA 2: TGGTGGCTACGACGGGATT
B7: UUUAGUU (DNA:RNA)
RNA: B1 RNA with C25U, G27U, A29G, C30U, A31U
DNA 1: CAATCTGAATTCCGGTCTCCC
DNA 2: TGGTGGCTACGACGGGATT
B8: UAAUCGU (DNA:RNA)
RNA: GGGAGACCGGAAUUCAGAUUGUCCUAAUCGUUUAAAUCCCGUCGUAGCCACCA
DNA 1: CAATCTGAATTCCGGTCTCCC
DNA 2: TGGTGGCTACGACGGGATT
B9: CCGGAGG (DNA:RNA)
RNA: B1 RNA with U26C, A28G, C30G, A31G
DNA 1: CAATCTGAATTCCGGTCTCCC
DNA 2: TGGTGGCTACGACGGGATT
B10: AAUCCCC (DNA:RNA)
RNA: B8 RNA with U25A, A27U, U28C, G30C, U31C
DNA 1: CAATCTGAATTCCGGTCTCCC
DNA 2: TGGTGGCTACGACGGGATT
B11: UGCAAGG (DNA:RNA)
RNA: B1 RNA with C25U, U26G, G27C, C30G, A31G
DNA 1: CAATCTGAATTCCGGTCTCCC
DNA 2: TGGTGGCTACGACGGGATT
B12: GCGCAUA (DNA:RNA)
RNA: B1 RNA with C25G, U26C, A28C, C30U
DNA 1: CAATCTGAATTCCGGTCTCCC
DNA 2: TGGTGGCTACGACGGGATT
B13: GCGGGCA (DNA:RNA)
RNA: B1 RNA with C25G, U26C, A28G, A29G
DNA 1: CAATCTGAATTCCGGTCTCCC
DNA 2: TGGTGGCTACGACGGGATT
B14: UGAUUCC (DNA:RNA)
RNA: B8 RNA with A26G, C29U, G30C, U31C
DNA 1: CAATCTGAATTCCGGTCTCCC
DNA 2: TGGTGGCTACGACGGGATT
B15: AGUGUCG (DNA:RNA)
RNA: B1 RNA with C25A, U26G, G27U, A28G, A29U, A31G
DNA 1: CAATCTGAATTCCGGTCTCCC
DNA 2: TGGTGGCTACGACGGGATT
B16: AGUAGUU (DNA:RNA)
RNA: B1 RNA with C25A, U26G, G27U, A29G, C30U, A31U
DNA 1: CAATCTGAATTCCGGTCTCCC
DNA 2: TGGTGGCTACGACGGGATT
B17: CAUGAGU (DNA:RNA)
RNA: B8 RNA with U25C, A27U, U28G, C29A
DNA 1: CAATCTGAATTCCGGTCTCCC
DNA 2: TGGTGGCTACGACGGGATT
B18: GCAGAAU (DNA:RNA)
RNA: B8 RNA with U25G, A26C, U28G, C29A, G30A
DNA 1: CAATCTGAATTCCGGTCTCCC
DNA 2: TGGTGGCTACGACGGGATT
B19: UUACGCA (DNA:RNA)
RNA: B1 RNA with C25U, G27A, A28C, A29G
DNA 1: CAATCTGAATTCCGGTCTCCC
DNA 2: TGGTGGCTACGACGGGATT
B20: AAAGGUG (DNA:RNA)
RNA: B8 RNA with U25A, U28G, C29G, G30U, U31G
DNA 1: CAATCTGAATTCCGGTCTCCC
DNA 2: TGGTGGCTACGACGGGATT

Substitutions are numbered along the chain they refer to; changes in the protein carry UniProt numbers. The list shows a part of the results.

The assay addresses T1, RBFOX1 RRM. As to the kind of experiment: EMSA; HiTS-Eq, 1 nM pool, 10 min; buffer printed only for the single-RNA assays: 10 mM Tris pH 7.5, 150 mM NaCl, 3.4 mM EDTA, 0.001% NP-40, 30 C. Particulars: tags: His6 N-terminal (pET28a); label: 5' 32P. An outline of the steps: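 Purified wild-type or mutant RbFox RRM at increasing concentrations was equilibrated with 1 nM of 5′-radiolabelled RNA carrying 7 randomized nucleotides for 10 min in 50 µL. Unbound RNA was separated by 8% native PAGE and sequenced. Relative association constants came from read-count changes of each RNA species compared with the control reaction, normalised to the cognate motif.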
Take B1: the binding signal was 0.00455 KA relative to UGCAUGU.
On to B2, for which the binding signal was 0.00113 KA relative to UGCAUGU.
With B3, the binding signal was 0.0327 KA relative to UGCAUGU.
As to B4, the binding signal is 0.00183 KA relative to UGCAUGU.
Turning to B5, the binding signal was 0.0153 KA relative to UGCAUGU.
As to B6, the binding signal is 0.0101 KA relative to UGCAUGU.
As for B7, the binding signal was 0.0114 KA relative to UGCAUGU.
With B8, the binding signal is 0.0092 KA relative to UGCAUGU.
For B9, the binding signal was 0.0151 KA relative to UGCAUGU.
Turning to B10, the binding signal was 0.00148 KA relative to UGCAUGU.
As for B11, the binding signal was 0.013 KA relative to UGCAUGU.
Consider B12, for which the binding signal was 0.0107 KA relative to UGCAUGU.
In the case of B13, the binding signal is 0.0135 KA relative to UGCAUGU.
B14: the binding signal is 0.0111 KA relative to UGCAUGU.
Turning to B15, the binding signal is 0.0143 KA relative to UGCAUGU.
B16: the binding signal is 0.00781 KA relative to UGCAUGU.
As to B17, the binding signal is 0.0105 KA relative to UGCAUGU.
For the molecule B18, the binding signal is 0.0111 KA relative to UGCAUGU.
As to B19, the binding signal was 0.0107 KA relative to UGCAUGU.
On to B20, for which the binding signal is 0.00945 KA relative to UGCAUGU.
